By inhibition is commonly meant the change of the read-out against control, counted positive when it falls.

Some of the results follow. Further columns of the screen follow, without active or inactive calls. The list favours compounds with an active or inconclusive main result.

Consider 111 molecules from PubChem BioAssay AID1362 (SRMLSC, 2008).

This assay can be described thus: growth inhibition of WT strain, primary screen, mitochondrial fusion inhibitor project, WT and mutant strains, chemical genetic (AID 1362). Further: tested in S. cerevisiae. Particulars: mitochondrial fusion phenotypic screen, at 10 µM.
For `CCOC(=O)c1c(C)[nH]c(N=Nc2ccccc2)c1C`, the inhibition was 63.3%.
Turning to `CN1CC(c2ccccc2)C2(SC(=S)N(Cc3ccco3)C2=O)C12C(=O)Nc1ccccc12` (stereo unspecified), the inhibition is 27.9%.
For the molecule `COCCN(C(=O)Cc1cccs1)C(C(=O)NCc1ccc(OC)cc1)c1ccccc1` (stereo unspecified), the inhibition is 98.7%.
Consider `Clc1ccc2nc(-c3ccccn3)c(Nc3ccc4c(c3)OCO4)n2c1`, for which the inhibition came out at 61.9%.
Consider `Cc1ccc(N=Nc2ccc(O)c3ncccc23)cc1`, for which the inhibition worked out at 61.7%.
Take `CCCC1(CCC)NC(=O)N(CC(=O)Nc2cccc(OC)c2)C1=O`: the inhibition was -3.05%.
Take `O=c1cc(N2CCCCC2)c(-c2ccccc2)nn1Cc1ccccc1`: the inhibition was found to be 3.64%.
In the case of `OC(CNCc1ccc(Cl)cc1)(c1ccccc1)c1ccc(F)cc1` (stereo unspecified), the inhibition is 19.9%.
In the case of `CC(=O)c1c(C)[nH]c(C(=O)Nc2nc(-c3ccc(Cl)cc3)cs2)c1C`, the inhibition was found to be 58.6%.
As for `O=C(c1ccc(NC(=S)Nc2ccc(Cl)c(Cl)c2)cc1)N1CCCC1`, the inhibition turned out to be 73%.
As for `O=C(Nc1ccccc1N1CCCCC1)c1cccc([N+](=O)[O-])c1`, the figure is 40.5%.
As to `O=c1c2ccccc2n(Cc2ccc(F)cc2)c(=O)n1C1CCCC1`, the inhibition amounted to 21.1%.
Turning to `Cc1cc(Nc2nc3ccccc3nc2Cl)n(-c2ccccc2C)n1`, the inhibition turned out to be 59.9%.
As for `O=C(COC(=O)Cc1ccc(Br)cc1)NC12CC3CC(CC(C3)C1)C2`, the inhibition came out at 43.2%.
As to `CCOC(=O)c1c(OCC)[nH]c2c1cc(O)c1ccccc12`, the inhibition turned out to be 44.4%.
As to `NC(=O)NCCC1=CCCCC1`, the inhibition was -3.03%.
Take `Cc1cc(C)nc(NC(=O)c2ccc(COc3ccccc3Cl)cc2)c1`: the inhibition worked out at 28.3%.
In the case of `COc1ccccc1CN=Cc1[nH]c2ccc(Br)c(Cl)c2c1O`, the inhibition was determined as 8.52%.
Turning to `Cc1ccn2c(Nc3ccccc3C)c(-c3ccccn3)nc2c1`, the inhibition was 49.1%.
Regarding `CCC(=O)N1CCN(c2ccc(NC(=O)c3ccc([N+](=O)[O-])o3)cc2Cl)CC1`, the inhibition is 59.8%.
Turning to `O=C(COC(=O)C12CC3CC(CC(C3)C1)C2)NC12CC3CC(CC(C3)C1)C2`, the inhibition is 47.3%.
With `C=CCNC(=S)N(CC)c1cccc2ccccc12`, the inhibition stood at 48.4%.
For `CCCC1CCC(c2ccc(C(=O)NN)cc2)CC1` (stereo unspecified), the inhibition was found to be 83.1%.
`O=C(c1ccc(CSc2ccccc2)cc1)N1CCN(c2ccccc2)CC1`: the inhibition was found to be 47.5%.
In the case of `Cc1ccc(NNC(=O)C(=O)N2CCCCC2)cc1`, the inhibition stood at 58.3%.
`S=C(NCCc1ccccc1)NN=C1CCCCCC1`: the inhibition turned out to be 54.8%.
Regarding `Cc1ccc(/C=C/c2ccc(=O)n(Cc3ccccc3Cl)n2)cc1`, the inhibition stood at 36.5%.
For the molecule `CC/C(C)=N/Nc1cccc([N+](=O)[O-])c1`, the inhibition turned out to be 53.3%.
Turning to `NNc1nc2c(Cl)c(Cl)ccc2s1`, the inhibition is 72%.
With `CCc1ccc(NC(=S)NCc2ccccc2)cc1`, the inhibition worked out at 35.1%.
As for `Cc1ccc(S(=O)(=O)Nc2ccc3oc(=O)sc3c2)c(C)c1`, the figure is 26.1%.
For the molecule `CCCCOC(=O)CSc1nnc(-c2ccc(Cl)cc2Cl)o1`, the inhibition stood at 53%.
As to `Clc1nc(-c2cccnc2)nc2scc(-c3ccccc3)c12`, the inhibition is 61.8%.
Take `C=C(C)COc1ccc(-c2[nH]ncc2-c2ccccc2)c(O)c1`: the inhibition was 22.7%.
For the molecule `Cc1csc(NC(=O)c2cccn2C)n1`, the inhibition came out at 15.6%.
On to `O=C(Nc1ccccc1Cl)c1ccccc1Oc1ccc(C(F)(F)F)cc1[N+](=O)[O-]`, for which the inhibition is 15.1%.
For the molecule `O=C(C1=C[C@H](C2CCCCC2)C[C@H](OCc2ccc(CO)cc2)O1)N1CCN(Cc2ccccc2)CC1`, the inhibition stood at 33.3%.
In the case of `COc1cccc(-c2nc(=S)c3c(o2)CCCC3)c1`, the inhibition was determined as 47.3%.
On to `CCN1/C(=C/c2cc[n+](C)cc2)C=Cc2cc(C)ccc21`, for which the inhibition amounted to 47.7%.
As to `Cc1ccccc1-c1noc(C23CC4CC(CC(C4)C2)C3)n1`, the inhibition stood at 76.1%.
With `CCOC(=O)CSc1c(-c2cccs2)[nH]c2ccccc12`, the inhibition was found to be 15.5%.
On to `CCC(=O)Nc1ccc(-c2nnc(SCc3ccc(C(=O)Nc4nccs4)cc3)n2CC)cc1`, for which the inhibition was 8.88%.
As for `CCc1nnc(NC(=O)c2ccc(S(=O)(=O)N(CC)Cc3ccccc3)cc2)o1`, the inhibition came out at 53.5%.
As for `CC(C)(C)C(=O)NC(=S)NNC(=O)c1sc2ccccc2c1Cl`, the inhibition worked out at 63.7%.
Turning to `c1ccc(N(c2ccccc2)c2nc(-n3ccnc3)nc(-n3ccnc3)n2)cc1`, the inhibition was determined as 96.4%.
The value for `CC(C)CCn1c(N2CCN(c3cccc(Cl)c3)CC2)nc2c1c(=O)[nH]c(=O)n2C` was 35.6%; that for `O=C(NCc1ccccc1)c1cccc(COc2cccc(Cl)c2)c1` was 31.3%; that for `CCCCCc1ccc(OCCCC[n+]2ccccc2)c(CCCCC)c1` was 85.8%.
As for `CC(NC(=O)c1ccc(Br)cc1)c1ccc2c(c1)CCCC2` (stereo unspecified), the figure is 37.2%.
For the molecule `O=C(COc1ccc(Cl)cc1Cl)NNC(=S)NCc1ccco1`, the inhibition amounted to 33.5%.
As to `CCN1CCc2nc(NC(=O)c3ccccc3)sc2C1`, the inhibition worked out at 19%.
For the molecule `CCN1CCN(c2ccc(NC(=O)c3ccc4c(c3)OCO4)cc2)CC1`, the inhibition was -3.63%.
On to `CCO[C@H]1OC(C(=O)Nc2ccccc2)=C[C@@H](c2ccc(Br)cc2)[C@@H]1CCCO`, for which the inhibition turned out to be 49.9%.
Turning to `COc1ccc(C(N)=O)cc1NC(=O)c1cccc(F)c1`, the inhibition worked out at 27.1%.
As to `COC(=O)/C(=C(/F)Sc1cc(C)c(O)c(C)c1)C(F)(F)F`, the inhibition came to 47.4%.
As for `CC(C)c1ccc(S(=O)(=O)Nc2ccc(SC(F)F)cc2)cc1`, the inhibition came to 82.3%.
With `N#C/C(=N\Nc1cccc(Cl)c1)C(=O)c1ccccc1`, the inhibition came out at 66.6%.
`Cc1onc(-c2c(F)cccc2Cl)c1C(=O)Nc1sc2c(c1C(N)=O)CCC2`: the inhibition came to 40.1%.
As for `Cc1ccccc1NC1=C/C(=N\S(=O)(=O)c2cccs2)c2ccccc2C1=O`, the inhibition is 63.2%.
As for `CCOC1(OCC)C(c2ccc(Cl)cc2)C(C#N)(C#N)C1(OCC)OCC` (stereo unspecified), the figure is -24.2%; as for `CSc1nc(N2CCN(c3ccccc3Cl)CC2)c2ccccc2n1`, 39.5%; as for `Clc1cccc(NCc2nnc(SCc3ccc(Cl)cc3Cl)o2)c1`, 9.8%.
Consider `O=[N+]([O-])c1ccc(C[n+]2cccc3ccc4cccnc4c32)cc1`, for which the inhibition was found to be 49.6%.
In the case of `Cc1nc(CS(=O)c2ccc(Cl)cc2)cc(NCc2ccc(Cl)cc2Cl)n1` (stereo unspecified), the inhibition worked out at 29.3%.
As for `COc1ccc(S(=O)(=O)N2c3ccccc3OCC2C(C)(C)C)cc1` (stereo unspecified), the figure is -2.75%; as for `COc1ccc(C(=O)C[n+]2cn(C(F)F)c3ccccc32)c(F)c1`, 60.2%; as for `FC(F)(F)c1cc(-c2ccccc2)nc(NCc2cccs2)n1`, 16.6%.
`CCn1nc(C)c(C(=O)Nc2cc(Oc3cc(C)cc(C)c3)cc([N+](=O)[O-])c2)c1C`: the inhibition was 23.3%.
In the case of `CCN(CC)CCN(C(=O)c1c(F)cccc1F)c1nc2cc(C)cc(C)c2s1`, the inhibition stood at 56.2%.
The value for `S=c1nc(-c2sccc2OCc2ccc(Cl)cc2Cl)[nH][nH]1` was 18.9%; that for `CC(=O)NC/C(C)=N\Nc1ccc([N+](=O)[O-])cc1` was 63.7%; that for `N#C/C(=N\Nc1cccc([N+](=O)[O-])c1)C(=O)c1ccc(Br)cc1` was 65.7%.
For `CC(C)CC(=O)NC(=S)N(Cc1ccccc1)Cc1ccccc1`, the inhibition is -8.44%.
`Cc1ccc(C(=O)Nc2nc(-c3ccccc3)c(-c3ccccc3)o2)cc1`: the inhibition was found to be 8.01%.
Consider `O=C(Nc1ncc2c(n1)CC(c1ccco1)CC2=O)c1ccccc1` (stereo unspecified), for which the inhibition is -2.75%.
On to `Cc1ccc(C(=O)NC(=S)Nc2ccccc2C(F)(F)F)cc1C`, for which the inhibition came out at 59.8%.
Consider `Cc1ccc(NC(=S)NCCC2=CCCCC2)cc1`, for which the inhibition came out at 66.8%.
In the case of `O=C(Nc1cccc(S(=O)(=O)Nc2ccccc2F)c1)c1ccc2ccccc2n1`, the inhibition was determined as 73.7%.
With `CC(C)N(C(=S)NC1CC2CCC1C2)c1ccccc1` (stereo unspecified), the inhibition was found to be 4.45%.
Take `Clc1cncc(Cl)c1NNc1c2ccccc2nc2ccccc12`: the inhibition came out at 21.5%.
As to `C#CCn1cnc2c(cnn2-c2ccc(C)c(C)c2)c1=O`, the inhibition came to 16.3%.
For the molecule `CC12CC3(C)CC(C)(C1)CC(C(=O)NC(=S)NC(C)(C)C)(C2)C3`, the inhibition is -11.9%.
For `COc1ccc2c(C)nc(Nc3nc(C)c(C)c(=O)[nH]3)nc2c1`, the inhibition is 60.3%.
On to `CN1CCN(C(=S)c2cn(Cc3ccc(Br)cc3)c3ccccc23)CC1`, for which the inhibition is 46.5%.
Regarding `Cc1ccc(Nc2nc(NCc3ccco3)c3ccccc3n2)cc1`, the inhibition came out at 90.1%.
With `CC(C)c1ccc(Nc2nc(NCc3ccco3)nc(N3CCOCC3)n2)cc1`, the inhibition came to 26.5%.
As for `Cc1nn(Cc2ccc(Cl)cc2Cl)c(C)c1NC(=O)NC12CC3CC(CC(C3)C1)C2`, the inhibition was determined as 28.1%.
In the case of `C1CCN=C(Nc2nc3c(s2)CCCC3)CC1`, the inhibition was found to be 2.23%.
Turning to `CC(=O)c1ccc(OC(=O)CCN2c3ccccc3Sc3ccccc32)cc1`, the inhibition stood at 18.7%.
`COc1ccc(NC(=S)N(Cc2ccccn2)Cc2ccccc2Cl)cc1`: the inhibition amounted to 45.7%.
The value for `Cc1ccc(CSc2nc3ccsc3c(=O)n2Cc2ccccn2)cc1` was 18.1%; that for `Cc1ccc(C)c(NC(=O)c2ccccc2C(=O)c2ccccc2)c1` was 12.1%; that for `CC(C)(C)C(=O)Cn1c(=N)n(Cc2ccccc2)c2ccccc21` was 35.5%.
Take `Cc1cc(SCC(=O)NCCC2=CCCCC2)nc2ccccc12`: the inhibition came to 35.3%.
Consider `N/C(=N\OC(=O)COc1ccc2ccccc2c1Br)c1ccccn1`, for which the inhibition is 55.6%.
As for `CNc1cc(CSC)nc(SCc2ccc(Cl)cc2Cl)n1`, the figure is 80.2%.
For the molecule `Cc1ccc(CC2SC(=Nc3ccccc3)N(c3ccccc3)C2=O)cc1` (stereo unspecified), the inhibition is -7.37%.
In the case of `Oc1ccc(/C=N/Nc2nc(N3CCCCCC3)nc(N3CCCCCC3)n2)c(O)c1`, the inhibition was 5.48%.
With `CCc1ccc(Nc2nc(N)nc(CSc3nc4ccccc4s3)n2)cc1`, the inhibition was 25.5%.
In the case of `CCOc1ccc(OCC)c(S(=O)(=O)NCCOC23CC4CC(CC(C4)C2)C3)c1`, the inhibition worked out at 3.53%.
Consider `CC1C/C(=C/c2ccncc2)C(=O)/C(=C/c2ccncc2)C1` (stereo unspecified), for which the inhibition is 72.3%.
For `O=S(=O)(Nc1ccc(N=Nc2ccc(O)c3ccccc23)cc1)c1ccccc1`, the inhibition is 27.7%.
As for `CCCCCCCCCS(=O)(=O)N/N=C/c1cccc([N+](=O)[O-])c1`, the inhibition was 42.7%.
As for `Clc1ccc2oc(-c3ccccc3)cc(=NCCCN3CCOCC3)c2c1`, the figure is 46%.
Take `Cc1cc(N2CCN(S(=O)(=O)c3ccc(Cl)c(Cl)c3)CC2)c2ccccc2n1`: the inhibition was determined as 61.5%.
In the case of `Cc1ccc(Nc2nc3nonc3[nH]c2=O)cc1Cl`, the inhibition amounted to 19.6%.
The value for `CCOC(=O)c1c(C)oc2c1c(C(c1cccnc1)N1CCCCC1)c(O)c1ccccc12` (stereo unspecified) was 25.6%; that for `CN1CCN(c2nc(-c3cccnc3)nc3ccccc23)CC1` was 13.6%.
In the case of `COc1ccc2cnn(CCOc3cc(C)ccc3C(C)C)c(=O)c2c1OC`, the inhibition is 43.7%.
As for `O=C(Nc1nnc(SCc2ccccc2Cl)s1)C1COc2ccccc2O1` (stereo unspecified), the inhibition amounted to 21.1%.
For `COCCN(C(=O)Cc1cccs1)C(C(=O)NCc1ccc(OC)cc1)c1ccc(C(C)C)cc1` (stereo unspecified), the inhibition amounted to 22.7%.
